# Laboratory results taken from the supplement of paper PMC8728848.
# Some of the results follow.
# B1: FaeGad (Escherichia coli) (protein)
# chain: WMTGDFNGSVDIGGSITADDYRQKWEWEVGTGLNGFGSVLNDLTNGGTKLTITVTGNKPILLGRTKEAFATPVTSGVDGIPHIAFTDYEGASVELRNPDGETEKGLTYFVLPMKNAEGTKVGSVKVNASYAGALGRGGVTSADGELMSLFAEGSHAIFYGGLPTNVKNSELKGGSAAAARTELFGSLSKNDILGQIQRVNANITSLVNVPGSFNENMAYTDGSVVSVAYALGIANGQTIEATFNQAVTTSTQWSAPLNVAITYY
# Tests used:
# Assay in all cases: glycan array binding signal (z-score within array); higher = stronger binding
# Conditions in all cases: glycan notation: IUPAC condensed, linker removed
# [1] = target: GlcNAc(a1-3)Gal(b1-4)GlcNAc
# In short: (§1)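 Arrays were curated from the Consortium for Functional Glycomics database, 3228 in total, and kept only where the protein sequence was available. Binding is expressed as a within-array Z-score. This score was averaged across arrays of the same protein sequence at different concentrations or buffers and across linkers, and negative values can be read as non-binding.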
# [2] = target: GlcNAc(a1-6)Gal(b1-4)GlcNAc
# In short: as §1
# [3] = target: GlcNAc(b1-2)Gal(b1-3)GalNAc
# In short: as §1
# [4] = target: GlcNAc(b1-2)Man(a1-3)[GlcNAc(b1-2)Man(a1-6)]Man(b1-4)GlcNAc(b1-4)GlcNAc
# In short: as §1
# GlcNAc(b1-3)Gal = target: GlcNAc(b1-3)Gal
# In short: as §1
# [5] = target: GlcNAc(b1-3)Gal(b1-3)GalNAc
# In short: as §1
# GlcNAc(b1-3)Gal(b1-4)Glc = target: GlcNAc(b1-3)Gal(b1-4)Glc
# In short: as §1
# [6] = target: GlcNAc(b1-3)Gal(b1-4)GlcNAc
# In short: as §1
# [7] = target: GlcNAc(b1-3)Gal(b1-4)GlcNAc(b1-3)Gal(b1-4)GlcNAc
# In short: as §1
# GlcNAc(b1-3)GalNAc = target: GlcNAc(b1-3)GalNAc
# In short: as §1
# [8] = target: GlcNAc(b1-3)[GlcNAc(b1-6)]Gal(b1-4)GlcNAc
# In short: as §1
# [9] = target: GlcNAc(b1-3)[GlcNAc(b1-6)]GalNAc
# In short: as §1
# [10] = target: GlcNAc(b1-3)[GlcNAc(b1-6)]GlcNAc(b1-4)GlcNAc
# In short: as §1
# [11] = target: GlcNAc(b1-4)Gal(b1-4)GlcNAc
# In short: as §1
# [12] = target: GlcNAc(b1-4)GlcNAc(b1-4)GlcNAc
# In short: as §1
# [13] = target: GlcNAc(b1-4)GlcNAc(b1-4)GlcNAc(b1-4)GlcNAc(b1-4)GlcNAc
# In short: as §1
# [14] = target: GlcNAc(b1-4)GlcNAc(b1-4)GlcNAc(b1-4)GlcNAc(b1-4)GlcNAc(b1-4)GlcNAc
# In short: as §1
# [15] = target: GlcNAc(b1-4)[GlcNAc(b1-6)]GalNAc
# In short: as §1
# [16] = target: GlcNAc(b1-6)Gal(b1-4)GlcNAc
# In short: as §1
# GlcNAc(b1-6)GalNAc = target: GlcNAc(b1-6)GalNAc
# In short: as §1
# Kdn(a2-3)Gal(b1-3)GlcNAc = target: Kdn(a2-3)Gal(b1-3)GlcNAc
# In short: as §1
# Kdn(a2-3)Gal(b1-4)GlcNAc = target: Kdn(a2-3)Gal(b1-4)GlcNAc
# In short: as §1
# [17] = target: Man(a1-2)Man(a1-2)Man(a1-3)Man
# In short: as §1
# [18] = target: Man(a1-2)Man(a1-2)Man(a1-6)[Man(a1-3)]Man
# In short: as §1
# Man(a1-2)Man(a1-3)Man = target: Man(a1-2)Man(a1-3)Man
# In short: as §1
# [19] = target: Man(a1-2)Man(a1-3)[Man(a1-2)Man(a1-6)]Man
# In short: as §1
# [20] = target: Man(a1-2)Man(a1-3)[Man(a1-2)Man(a1-6)]Man(a1-6)[Man(a1-2)Man(a1-2)Man(a1-3)]Man(b1-4)GlcNAc(b1-4)GlcNAc
# In short: as §1
# [21] = target: Man(a1-2)Man(a1-3)[Man(a1-6)]Man(a1-6)[Man(a1-2)Man(a1-3)]Man(b1-4)GlcNAc(b1-4)GlcNAc
# In short: as §1
# [22] = target: Man(a1-2)Man(a1-6)[Man(a1-3)]Man(a1-6)[Man(a1-2)Man(a1-2)Man(a1-3)]Man(b1-4)GlcNAc(b1-4)GlcNAc
# In short: as §1
# Man(a1-3)[Man(a1-6)]Man = target: Man(a1-3)[Man(a1-6)]Man
# In short: as §1
# [23] = target: Man(a1-3)[Man(a1-6)]Man(a1-6)[Man(a1-2)Man(a1-3)]Man(b1-4)GlcNAc(b1-4)GlcNAc
# In short: as §1
# [24] = target: Man(a1-3)[Man(a1-6)]Man(a1-6)[Man(a1-3)]Man(b1-4)GlcNAc(b1-4)GlcNAc
# In short: as §1
# [25] = target: Man(a1-3)[Man(a1-6)]Man(b1-4)GlcNAc(b1-4)GlcNAc
# In short: as §1
# Man(b1-4)GlcNAc = target: Man(b1-4)GlcNAc
# In short: as §1
# Neu5Ac(a2-3)Gal = target: Neu5Ac(a2-3)Gal
# In short: as §1
# [26] = target: Neu5Ac(a2-3)Gal(b1-3)GalNAc
# In short: as §1
# [27] = target: Neu5Ac(a2-3)Gal(b1-3)GalNAc(b1-3)Gal(a1-4)Gal(b1-4)Glc
# In short: as §1
binder,measurement,setting,value
B1,glycan array binding signal (z-score),[1],0.188
same,glycan array binding signal (z-score),[2],0.421
same,glycan array binding signal (z-score),[3],0.133
same,glycan array binding signal (z-score),[4],0.315
same,glycan array binding signal (z-score),GlcNAc(b1-3)Gal,0.318
same,glycan array binding signal (z-score),[5],0
same,glycan array binding signal (z-score),GlcNAc(b1-3)Gal(b1-4)Glc,0.043
same,glycan array binding signal (z-score),[6],-0.351
same,glycan array binding signal (z-score),[7],-0.317
same,glycan array binding signal (z-score),GlcNAc(b1-3)GalNAc,0.323
same,glycan array binding signal (z-score),[8],0.156
same,glycan array binding signal (z-score),[9],0.813
same,glycan array binding signal (z-score),[10],0.871
same,glycan array binding signal (z-score),[11],0.141
same,glycan array binding signal (z-score),[12],0.137
same,glycan array binding signal (z-score),[13],0.157
same,glycan array binding signal (z-score),[14],0.048
same,glycan array binding signal (z-score),[15],0.25
same,glycan array binding signal (z-score),[16],0.327
same,glycan array binding signal (z-score),GlcNAc(b1-6)GalNAc,0.514
same,glycan array binding signal (z-score),Kdn(a2-3)Gal(b1-3)GlcNAc,-0.278
same,glycan array binding signal (z-score),Kdn(a2-3)Gal(b1-4)GlcNAc,-0.283
same,glycan array binding signal (z-score),[17],0.369
same,glycan array binding signal (z-score),[18],1.83
same,glycan array binding signal (z-score),Man(a1-2)Man(a1-3)Man,-0.083
same,glycan array binding signal (z-score),[19],1.23
same,glycan array binding signal (z-score),[20],0.703
same,glycan array binding signal (z-score),[21],1
same,glycan array binding signal (z-score),[22],1.15
same,glycan array binding signal (z-score),Man(a1-3)[Man(a1-6)]Man,-0.081
same,glycan array binding signal (z-score),[23],0.242
same,glycan array binding signal (z-score),[24],-0.243
same,glycan array binding signal (z-score),[25],-0.288
same,glycan array binding signal (z-score),Man(b1-4)GlcNAc,-0.261
same,glycan array binding signal (z-score),Neu5Ac(a2-3)Gal,-0.511
same,glycan array binding signal (z-score),[26],-0.426
same,glycan array binding signal (z-score),[27],-0.345
